Among the data in publication PMC12820563 are binding signal (RPM ratio (pull-down/input)) values, retold here.

The other results are listed elsewhere or left out. The list includes weakly bound sequences.

The experiment deals with T1, MBP-FoxP3dN (UniProt Q99JB6).
T1 sequence: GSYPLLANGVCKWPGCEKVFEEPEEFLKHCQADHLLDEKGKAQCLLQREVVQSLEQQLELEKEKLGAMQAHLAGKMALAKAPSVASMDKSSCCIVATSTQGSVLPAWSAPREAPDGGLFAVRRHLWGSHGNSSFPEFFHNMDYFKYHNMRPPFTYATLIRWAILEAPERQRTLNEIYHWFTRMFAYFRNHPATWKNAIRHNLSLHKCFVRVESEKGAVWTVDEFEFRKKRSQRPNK
The experiment can be described thus: PD-seq (MBP pull-down with sequencing). The conditions noted are these: 20 mM Tris-HCl pH 7.5, 100 mM NaCl, 1.5 mM MgCl2, 0.4 uM protein, 0.1 uM dsDNA library, 30 min, room temperature, amylose pull-down; high values mean tight binding; double strand, one strand shown.
Take “GATGATTGTTCTCCCAGCTGATGAATTTAGTCCTTCGAGTAAACAAATTTTCCTAATCTTTCTGTTCAAGCGCCATCTAC”: the binding signal (RPM ratio (pull-down/input)) was 0.502.
With “GATGATTGTTCTCCCAGCTGATGAATTATGCCCTTCGAGTAAACAAATTTTCCTAATCTTTCTGTTCAAGCGCCATCTAC” the figure was 1.87; with “GATGATTGTTCTCCCAGCTGATGAATTGTAAAACTCGAGTAAACAAATTTTCCTAATCTTTCTGTTCAAGCGCCATCTAC”, 0.26; with “GATGATTGTTCTCCCAGCTGATGAATTTCGAATGTCGAGTAAACAAATTTTCCTAATCTTTCTGTTCAAGCGCCATCTAC”, 0.813.
In the case of “GATGATTGTTCTCCCAGCTGATGAATTATTACTTTCGAGTAAACAAATTTTCCTAATCTTTCTGTTCAAGCGCCATCTAC” it was 0.431; in that of “GATGATTGTTCTCCCAGCTGATGAATTAAGCGTATCGAGTAAACAAATTTTCCTAATCTTTCTGTTCAAGCGCCATCTAC”, 1.19; in that of “GATGATTGTTCTCCCAGCTGATGAATTTAACATGTCGAGTAAACAAATTTTCCTAATCTTTCTGTTCAAGCGCCATCTAC”, 0.833.
With “GATGATTGTTCTCCCAGCTGATGAATTGACTAGTTCGAGTAAACAAATTTTCCTAATCTTTCTGTTCAAGCGCCATCTAC” the figure was 0.39; with “GATGATTGTTCTCCCAGCTGATGAATTTTACTGATCGAGTAAACAAATTTTCCTAATCTTTCTGTTCAAGCGCCATCTAC”, 0.442.
Consider “GATGATTGTTCTCCCAGCTGATGAATTACGCCCATCGAGTAAACAAATTTTCCTAATCTTTCTGTTCAAGCGCCATCTAC”, for which the binding signal (RPM ratio (pull-down/input)) was 1.52.
With “GATGATTGTTCTCCCAGCTGATGAATTCAAAGGATCGAGTAAACAAATTTTCCTAATCTTTCTGTTCAAGCGCCATCTAC” the figure was 0.179; with “GATGATTGTTCTCCCAGCTGATGAATTCAGAACTTCGAGTAAACAAATTTTCCTAATCTTTCTGTTCAAGCGCCATCTAC”, 0.206; with “GATGATTGTTCTCCCAGCTGATGAATTGAAGATCTCGAGTAAACAAATTTTCCTAATCTTTCTGTTCAAGCGCCATCTAC”, 0.253.
With “GATGATTGTTCTCCCAGCTGATGAATTCATGATCTCGAGTAAACAAATTTTCCTAATCTTTCTGTTCAAGCGCCATCTAC” the figure was 0.677; with “GATGATTGTTCTCCCAGCTGATGAATTTCGTTCGTCGAGTAAACAAATTTTCCTAATCTTTCTGTTCAAGCGCCATCTAC”, 0.53.
With “GATGATTGTTCTCCCAGCTGATGAATTTGAGTCTTCGAGTAAACAAATTTTCCTAATCTTTCTGTTCAAGCGCCATCTAC” the figure was 0.761.
Take “GATGATTGTTCTCCCAGCTGATGAATTGGGGCCTTCGAGTAAACAAATTTTCCTAATCTTTCTGTTCAAGCGCCATCTAC”: the binding signal (RPM ratio (pull-down/input)) is 1.38.
With “GATGATTGTTCTCCCAGCTGATGAATTGTGGCATTCGAGTAAACAAATTTTCCTAATCTTTCTGTTCAAGCGCCATCTAC” the figure was 6.18.
